# The other results are listed elsewhere or left out.
# B1: Gal 8 (Mus musculus), Q9JL15 (protein)
# chain: MGGSHHHHHHGMASMLSLNNLQNIIYNPIIPYVGTITEQLKPGSLIVIRGHVPKDSERFQVDFQLGNSLKPRADVAFHFNPHFKRSSCIVCNTLTQEKWGWEEITYDMPFRKEKSFEIVFMVLKNKFQVAVNGRHVLLYAHRISPEQIDTVGIYGKVNIHSIGFRFSSASALPHTLGDLQSMETSALGLTQINRENIQKPGKLQLSLPFEARLNASMGPGRTVVIKGEVNTNARSFNVDLVAGKTRDIALHLNPHLNVKAFVRNSFLQDAWGEEERNITCFPFSSGMYFEMIIYCDVREFKVAINGVHSLEYKHRFKDLSSIDTLSVDGDIRLLDVRSW
# What was measured:
# Assay in all cases: glycan array binding signal (z-score within array); higher = stronger binding
# Details in all cases: glycan notation: IUPAC condensed, linker removed; mutation: R82H, R255H
# [1] = target: Gal(b1-4)GalNAc(b1-3)[Fuc(a1-2)]Gal(b1-4)GlcNAc
# Summary of the method: (§1)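 Negative Z-scores can be read as non-binding. The Z-score is calculated within each array and then averaged across arrays of one protein sequence at different concentrations or buffers and across linkers. Arrays, 3228 in all, were curated from the Consortium for Functional Glycomics database and kept only where the protein sequence was available.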
# Gal(b1-4)Glc = target: Gal(b1-4)Glc
# Summary of the method: as §1
# Gal(b1-4)Glc6S = target: Gal(b1-4)Glc6S
# Summary of the method: as §1
# Gal(b1-4)GlcNAc = target: Gal(b1-4)GlcNAc
# Summary of the method: as §1
# [2] = target: Gal(b1-4)GlcNAc(a1-6)Gal(b1-4)GlcNAc
# Summary of the method: as §1
# Gal(b1-4)GlcNAc(b1-2)Man = target: Gal(b1-4)GlcNAc(b1-2)Man
# Summary of the method: as §1
# [3] = target: Gal(b1-4)GlcNAc(b1-2)Man(a1-3)Man(b1-4)GlcNAc(b1-4)GlcNAc
# Summary of the method: as §1
# [4] = target: Gal(b1-4)GlcNAc(b1-2)Man(a1-3)[Gal(b1-4)GlcNAc(b1-2)Man(a1-6)]Man(b1-4)GlcNAc(b1-4)GlcNAc
# Summary of the method: as §1
# [5] = target: Gal(b1-4)GlcNAc(b1-2)Man(a1-3)[Gal(b1-4)GlcNAc(b1-2)Man(a1-6)]Man(b1-4)GlcNAc(b1-4)[Fuc(a1-6)]GlcNAc
# Summary of the method: as §1
# [6] = target: Gal(b1-4)GlcNAc(b1-2)Man(a1-3)[Gal(b1-4)GlcNAc(b1-2)Man(a1-6)][Gal(b1-4)GlcNAc(b1-4)]Man(b1-4)GlcNAc(b1-4)[Fuc(a1-6)]GlcNAc
# Summary of the method: as §1
# [7] = target: Gal(b1-4)GlcNAc(b1-2)Man(a1-3)[Gal(b1-4)GlcNAc(b1-2)Man(a1-6)][GlcNAc(b1-4)]Man(b1-4)GlcNAc(b1-4)[Fuc(a1-6)]GlcNAc
# Summary of the method: as §1
# [8] = target: Gal(b1-4)GlcNAc(b1-2)Man(a1-3)[GlcNAc(b1-2)Man(a1-6)]Man(b1-4)GlcNAc(b1-4)GlcNAc
# Summary of the method: as §1
# [9] = target: Gal(b1-4)GlcNAc(b1-2)Man(a1-3)[GlcNAc(b1-4)][Gal(b1-4)GlcNAc(b1-2)Man(a1-6)]Man(b1-4)GlcNAc(b1-4)GlcNAc
# Summary of the method: as §1
# [10] = target: Gal(b1-4)GlcNAc(b1-2)Man(a1-3)[Man(a1-6)]Man(b1-4)GlcNAc(b1-4)GlcNAc
# Summary of the method: as §1
# [11] = target: Gal(b1-4)GlcNAc(b1-2)Man(a1-6)Man(b1-4)GlcNAc(b1-4)GlcNAc
# Summary of the method: as §1
# [12] = target: Gal(b1-4)GlcNAc(b1-2)Man(a1-6)[GlcNAc(b1-2)Man(a1-3)]Man(b1-4)GlcNAc(b1-4)GlcNAc
# Summary of the method: as §1
# [13] = target: Gal(b1-4)GlcNAc(b1-2)Man(a1-6)[Man(a1-3)]Man(b1-4)GlcNAc(b1-4)GlcNAc
# Summary of the method: as §1
# [14] = target: Gal(b1-4)GlcNAc(b1-2)[Gal(b1-4)GlcNAc(b1-4)]Man(a1-3)[Gal(b1-4)GlcNAc(b1-2)Man(a1-6)]Man(b1-4)GlcNAc(b1-4)GlcNAc
# Summary of the method: as §1
# [15] = target: Gal(b1-4)GlcNAc(b1-2)[Gal(b1-4)GlcNAc(b1-4)]Man(a1-3)[Gal(b1-4)GlcNAc(b1-2)[Gal(b1-4)GlcNAc(b1-6)]Man(a1-6)]Man(b1-4)GlcNAc(b1-4)GlcNAc
# Summary of the method: as §1
# [16] = target: Gal(b1-4)GlcNAc(b1-2)[Gal(b1-4)GlcNAc(b1-4)]Man(a1-3)[GlcNAc(b1-4)][Gal(b1-4)GlcNAc(b1-2)Man(a1-6)]Man(b1-4)GlcNAc(b1-4)GlcNAc
# Summary of the method: as §1
# [17] = target: Gal(b1-4)GlcNAc(b1-2)[Gal(b1-4)GlcNAc(b1-4)]Man(a1-3)[GlcNAc(b1-4)][Gal(b1-4)GlcNAc(b1-2)[Gal(b1-4)GlcNAc(b1-6)]Man(a1-6)]Man(b1-4)GlcNAc(b1-4)GlcNAc
# Summary of the method: as §1
# [18] = target: Gal(b1-4)GlcNAc(b1-2)[Gal(b1-4)GlcNAc(b1-6)]Man(a1-6)[Gal(b1-4)GlcNAc(b1-2)Man(a1-3)]Man(b1-4)GlcNAc(b1-4)GlcNAc
# Summary of the method: as §1
# [19] = target: Gal(b1-4)GlcNAc(b1-2)[Gal(b1-4)GlcNAc(b1-6)]Man(a1-6)[Gal(b1-4)GlcNAc(b1-2)Man(a1-3)]Man(b1-4)GlcNAc(b1-4)[Fuc(a1-6)]GlcNAc
# Summary of the method: as §1
# [20] = target: Gal(b1-4)GlcNAc(b1-2)[Gal(b1-4)GlcNAc(b1-6)]Man(a1-6)[GlcNAc(b1-4)][Gal(b1-4)GlcNAc(b1-2)Man(a1-3)]Man(b1-4)GlcNAc(b1-4)GlcNAc
# Summary of the method: as §1
# [21] = target: Gal(b1-4)GlcNAc(b1-2)[Gal(b1-4)GlcNAc(b1-6)]Man(a1-6)[GlcNAc(b1-4)][Gal(b1-4)GlcNAc(b1-2)[Gal(b1-4)GlcNAc(b1-4)]Man(a1-3)]Man(b1-4)GlcNAc(b1-4)[Fuc(a1-6)]GlcNAc
# Summary of the method: as §1
# [22] = target: Gal(b1-4)GlcNAc(b1-3)Gal(b1-3)GalNAc
# Summary of the method: as §1
# [23] = target: Gal(b1-4)GlcNAc(b1-3)Gal(b1-3)GlcNAc
# Summary of the method: as §1
# [24] = target: Gal(b1-4)GlcNAc(b1-3)Gal(b1-4)Glc
# Summary of the method: as §1
# [25] = target: Gal(b1-4)GlcNAc(b1-3)Gal(b1-4)GlcNAc
# Summary of the method: as §1
# [26] = target: Gal(b1-4)GlcNAc(b1-3)Gal(b1-4)GlcNAc(b1-2)Man(a1-3)[Gal(b1-4)GlcNAc(b1-3)Gal(b1-4)GlcNAc(b1-2)Man(a1-6)]Man(b1-4)GlcNAc(b1-4)GlcNAc
# Summary of the method: as §1
# [27] = target: Gal(b1-4)GlcNAc(b1-3)Gal(b1-4)GlcNAc(b1-2)Man(a1-3)[Gal(b1-4)GlcNAc(b1-3)Gal(b1-4)GlcNAc(b1-2)Man(a1-6)]Man(b1-4)GlcNAc(b1-4)[Fuc(a1-6)]GlcNAc
# Summary of the method: as §1
# [28] = target: Gal(b1-4)GlcNAc(b1-3)Gal(b1-4)GlcNAc(b1-2)[Gal(b1-4)GlcNAc(b1-3)Gal(b1-4)GlcNAc(b1-6)]Man(a1-6)[Gal(b1-4)GlcNAc(b1-3)Gal(b1-4)GlcNAc(b1-2)Man(a1-3)]Man(b1-4)GlcNAc(b1-4)GlcNAc
# Summary of the method: as §1
# [29] = target: Gal(b1-4)GlcNAc(b1-3)Gal(b1-4)GlcNAc(b1-2)[Gal(b1-4)GlcNAc(b1-3)Gal(b1-4)GlcNAc(b1-6)]Man(a1-6)[Gal(b1-4)GlcNAc(b1-3)Gal(b1-4)GlcNAc(b1-2)Man(a1-3)]Man(b1-4)GlcNAc(b1-4)[Fuc(a1-6)]GlcNAc
# Summary of the method: as §1
# [30] = target: Gal(b1-4)GlcNAc(b1-3)Gal(b1-4)GlcNAc(b1-3)Gal(b1-4)GlcNAc
# Summary of the method: as §1
# [31] = target: Gal(b1-4)GlcNAc(b1-3)Gal(b1-4)GlcNAc(b1-3)Gal(b1-4)GlcNAc(b1-2)Man(a1-3)[Gal(b1-4)GlcNAc(b1-3)Gal(b1-4)GlcNAc(b1-3)Gal(b1-4)GlcNAc(b1-2)Man(a1-6)]Man(b1-4)GlcNAc(b1-4)GlcNAc
# Summary of the method: as §1
# [32] = target: Gal(b1-4)GlcNAc(b1-3)Gal(b1-4)GlcNAc(b1-3)Gal(b1-4)GlcNAc(b1-2)Man(a1-3)[Gal(b1-4)GlcNAc(b1-3)Gal(b1-4)GlcNAc(b1-3)Gal(b1-4)GlcNAc(b1-2)Man(a1-6)]Man(b1-4)GlcNAc(b1-4)[Fuc(a1-6)]GlcNAc
# Summary of the method: as §1
# [33] = target: Gal(b1-4)GlcNAc(b1-3)Gal(b1-4)GlcNAc(b1-3)Gal(b1-4)GlcNAc(b1-2)[Gal(b1-4)GlcNAc(b1-3)Gal(b1-4)GlcNAc(b1-3)Gal(b1-4)GlcNAc(b1-6)]Man(a1-6)[Gal(b1-4)GlcNAc(b1-3)Gal(b1-4)GlcNAc(b1-3)Gal(b1-4)GlcNAc(b1-2)Man(a1-3)]Man(b1-4)GlcNAc(b1-4)[Fuc(a1-6)]GlcNAc
# Summary of the method: as §1
binder,measurement,setting,value
B1,glycan array binding signal (z-score),[1],-0.275
same,glycan array binding signal (z-score),Gal(b1-4)Glc,-0.231
same,glycan array binding signal (z-score),Gal(b1-4)Glc6S,-0.26
same,glycan array binding signal (z-score),Gal(b1-4)GlcNAc,-0.237
same,glycan array binding signal (z-score),[2],-0.278
same,glycan array binding signal (z-score),Gal(b1-4)GlcNAc(b1-2)Man,-0.197
same,glycan array binding signal (z-score),[3],-0.256
same,glycan array binding signal (z-score),[4],-0.292
same,glycan array binding signal (z-score),[5],-0.229
same,glycan array binding signal (z-score),[6],-0.26
same,glycan array binding signal (z-score),[7],-0.281
same,glycan array binding signal (z-score),[8],-0.274
same,glycan array binding signal (z-score),[9],-0.278
same,glycan array binding signal (z-score),[10],-0.243
same,glycan array binding signal (z-score),[11],-0.259
same,glycan array binding signal (z-score),[12],-0.276
same,glycan array binding signal (z-score),[13],-0.273
same,glycan array binding signal (z-score),[14],-0.275
same,glycan array binding signal (z-score),[15],-0.286
same,glycan array binding signal (z-score),[16],-0.271
same,glycan array binding signal (z-score),[17],-0.268
same,glycan array binding signal (z-score),[18],-0.272
same,glycan array binding signal (z-score),[19],-0.256
same,glycan array binding signal (z-score),[20],-0.28
same,glycan array binding signal (z-score),[21],-0.267
same,glycan array binding signal (z-score),[22],-0.251
same,glycan array binding signal (z-score),[23],-0.241
same,glycan array binding signal (z-score),[24],-0.231
same,glycan array binding signal (z-score),[25],-0.311
same,glycan array binding signal (z-score),[26],0.454
same,glycan array binding signal (z-score),[27],1.24
same,glycan array binding signal (z-score),[28],0.82
same,glycan array binding signal (z-score),[29],0.073
same,glycan array binding signal (z-score),[30],-0.271
same,glycan array binding signal (z-score),[31],1.01
same,glycan array binding signal (z-score),[32],0.135
same,glycan array binding signal (z-score),[33],1.5

# Source: the supplement of paper PMC8728848
